From patent EP4768503A1 (Keymed Biosciences (Chengdu) Co., Ltd., dated 2026)

Assays:
Aβ1-42 protofibril = target: T1, Aβ1-42 protofibril (human); test: graded binding, chimeric antibody (assay not named; ELISA in Example 1)
T1 construct: also called amyloid protofibril

Aβ1-42 monomer = target: T2, Aβ1-42 monomer (human); test: as above
T2 construct: Preparation of the monomer is not described

Chain of Aβ1-42 monomer (peptide, as listed by the source): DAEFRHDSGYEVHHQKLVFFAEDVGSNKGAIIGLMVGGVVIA
Chain of Aβ1-42 protofibril (peptide, as listed by the source): as above

B1: 15E11-2 (antibody, V domains shown)
VH: QVTLKESGPGILQPSQTLSLTCSFSGFSLSTSGMGVSWIRQPSGKGLEWLAHIYWDDDKRYNPSLKSRLTISKVTSRNQVFLKITSVDTADTATYYCARYDKGFPYWGQGTLVTVSA
VL: DTVMTQSPSSLAMSVGQKVTMSCKSSQSLLNSSNQKNYLAWYQQKPGQSPKLLIYFASTRESGVPDRFIGSGSGTDFTLTISSVQAEDLADYFCQQHYSTPLTFGAGTKLELK
notes: Chimeric antibody; the constant region of the chimeric form is not specified
binding result (Aβ1-42 protofibril): binds
binding result (Aβ1-42 monomer): binds
